Test results as given in the DeepSol protein solubility set.

Assay: soluble on expression in E. coli; label from the status in PepcDB or PDB records

Row | Sequence | soluble on expression in E. coli
1 | MSLAKPAVFLDRDGVINVDHGYVHDEHDFQFIEGVFEATAALQRMGYLLVLVTNQSGIARGKFSEERFISLTQWMDWNFADNGVEFDGIYYCPHHAEHGIGQYKEECDCRKPKPGMFLSARDFLNIDMANSVMVGDKAEDMMAAEAAGVGTKILVRTGKPITEQGEALATVVLDSIRDVPHYLLRVKKEGHHHHHH | soluble
2 | MSLTDRLASLFESAVSMLPMSEARSLDLFTEITNYDESACDAWIGRIRCGDTDRVTLFRAWYSRRNFGQLSGSVQISMSTLNARIAIGGLYGDITYPVTSPLAITMGFAACEAAQGNYADAMEALEAAPVAGSEHLVAWMKAVVYGAAERWTDVIDQVKSAGKWPDKFLAGAAGVAHGVAAANLALFTEAERRLTEANDSPAGEACARAIAWYLAMARRSQGNESAAVALLEWLQTTHPEPKVAAALKDPSYRLKTTTAEQIASRADPWDPGSVVTDNSGRERLLAEAQAELDRQIGLTRVKNQIERYRAATLMARVRAAKGMKVAQPSKHMIFTGPPGTGKTTIARVVANILAGLGVIAEPKLVETSRKDFVAEYEGQSAVKTAKTIDQALGGVLFIDEAYALVQERDGRTDPFGQEALDTLLARMENDRDRLVVIIAGYSSDIDRLLETNEGLRSRFATRIEFDTYSPEELLEIANVIAAADDSALTAEAAENFLQAAKQLEQRMLRGRRALDVAGNGRYARQLVEASEQCRDMRLAQVLDIDTLDEDRLREINGSDMAEAIAAVHAHLNMREGHHHHHH | soluble
